Experimental data from paper PMC4336329 (PLoS ONE, 2015).
In all, about 310,000 compounds went through this assay and about 2,200 (0.71%) showed an effect of 50% or more. The effect is printed as a negative number. This is one part of the list.

Target: human ether-à-go-go-related gene (hERG) potassium channel (human, UniProt Q12809)
Experiment: primary screen, population patch clamp on CHO cells stably expressing hERG

Chain of human ether-à-go-go-related gene (hERG) potassium channel (Q12809 whole entry, looked up): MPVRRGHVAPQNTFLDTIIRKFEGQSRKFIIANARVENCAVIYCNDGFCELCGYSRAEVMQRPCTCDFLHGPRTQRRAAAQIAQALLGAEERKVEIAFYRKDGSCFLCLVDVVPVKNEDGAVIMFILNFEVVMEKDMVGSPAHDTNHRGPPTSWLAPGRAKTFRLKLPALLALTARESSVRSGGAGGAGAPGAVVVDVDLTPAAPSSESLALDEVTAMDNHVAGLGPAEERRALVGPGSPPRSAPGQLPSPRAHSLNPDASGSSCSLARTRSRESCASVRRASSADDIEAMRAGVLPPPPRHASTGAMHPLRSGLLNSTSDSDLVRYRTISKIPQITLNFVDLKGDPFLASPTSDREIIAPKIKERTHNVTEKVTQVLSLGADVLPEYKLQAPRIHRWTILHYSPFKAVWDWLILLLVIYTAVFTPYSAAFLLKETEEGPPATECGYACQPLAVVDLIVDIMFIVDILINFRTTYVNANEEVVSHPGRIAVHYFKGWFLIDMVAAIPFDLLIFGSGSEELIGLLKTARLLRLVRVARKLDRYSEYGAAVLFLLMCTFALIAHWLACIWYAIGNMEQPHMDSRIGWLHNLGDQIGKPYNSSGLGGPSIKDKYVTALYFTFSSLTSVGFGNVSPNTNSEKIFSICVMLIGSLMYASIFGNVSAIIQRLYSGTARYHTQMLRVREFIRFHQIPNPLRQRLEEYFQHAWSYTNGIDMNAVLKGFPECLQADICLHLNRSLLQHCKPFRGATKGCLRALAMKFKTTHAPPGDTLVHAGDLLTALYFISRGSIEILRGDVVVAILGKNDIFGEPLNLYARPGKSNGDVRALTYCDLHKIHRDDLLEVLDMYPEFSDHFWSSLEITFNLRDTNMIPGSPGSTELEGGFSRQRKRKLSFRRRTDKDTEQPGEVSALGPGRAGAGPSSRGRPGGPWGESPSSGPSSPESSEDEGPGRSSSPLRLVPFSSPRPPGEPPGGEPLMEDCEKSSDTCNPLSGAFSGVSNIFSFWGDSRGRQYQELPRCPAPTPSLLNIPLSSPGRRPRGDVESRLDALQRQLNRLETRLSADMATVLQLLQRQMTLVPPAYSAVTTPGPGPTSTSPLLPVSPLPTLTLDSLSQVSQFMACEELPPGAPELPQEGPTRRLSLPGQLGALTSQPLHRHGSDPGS

Row | Structure (SMILES) | hERG current change (%, negative = inhibition) at 1uM [%]
1 | O=C(N/N=C/c1ccncc1)C1CC1C(=O)N/N=C/c1ccncc1 (stereo not shown) | 12.5
2 | CCCS(=O)(=O)c1c(S(=O)(=O)CCC)c2ccc(C(N)=O)cn2c1C(=O)c1ccc(F)cc1 | 6.39
3 | Cn1ncc(C#N)c1NC(=O)c1nn2cccnc2c1Cl | 16.8
4 | COCCCNC(=S)Nc1ccc(OC(F)F)cc1C | 8.72
5 | COCCN(C(=O)c1snc(C(N)=O)c1N)C(C(=O)NC1CCCCC1)c1ccc(OC)c(OC)c1 (stereo not shown) | 13.9
6 | CC(C)NS(=O)(=O)c1ccc(NC(=S)NC(=O)c2ccc(-c3ccccc3)cc2)cc1 | -2.44
7 | CC(C)C(=O)Nc1ccc(-c2nc3ccccc3c(=O)o2)cc1 | 16.3
8 | COc1ccc(-c2cc(-c3ccccc3)c(C#N)c(SCC(=O)O)n2)cc1 | 11.3
9 | Cc1ccc(F)cc1NC(=O)c1sc2ncn(CC(=O)N3CCN(c4ccccn4)CC3)c(=O)c2c1C | -15
10 | Cc1ccc(C(=O)OCC(=O)NNC(=O)c2ccccc2)c(O)c1 | -6.96
11 | C=CCn1c(O)c(C(CC)=NCCC2=CCCCC2)c(=O)[nH]c1=O | 5.33
12 | COc1cc(-c2nnc(COC(=O)CSCC(=O)Nc3cc(C)on3)o2)cc(OC)c1OC | 7.66
13 | Cc1cc(C)c(S(=O)(=O)c2c(C)cccc2C)c(Cl)n1 | 9
14 | CCCCC(CC)CNC(=O)CCS(=O)(=O)c1cccc2nonc12 (stereo not shown) | 11.9
15 | CCN(CC)C(=O)C12CC3CC(CC(Br)(C3)C1)C2 | 12.5
16 | Cc1ccccc1OCC(=O)NC(=S)Nc1ccc(Br)c(C)n1 | 10.2
17 | CCN(CC)c1ccc2c(Cl)cc(=O)oc2c1 | 2.38
18 | CCOC(=O)c1cnc(SCC(=O)Nc2ccccc2C(=O)OC)nc1N | -10
19 | CCN(CC)c1ccc(NC(=O)/C=C/c2cc(Br)ccc2OC)cc1 | 8.46
20 | CN(CC(=O)Nc1ccccc1C(F)(F)F)C(=O)CSCc1ccc(Cl)c(Cl)c1 | 5.95
21 | CCOc1ccccc1C(=O)Nc1cccc2cccnc12 | 10.1
22 | CN(C)C(=O)c1ccc(NC(=O)CSc2nnc(-c3cccs3)n2N)cc1 | 8.44

Row | Structure (SMILES) | hERG current change (%, negative = inhibition) at 1uM [%]
23 | O=C(CN(CCO)c1ccccc1)Nc1cccc(S(=O)(=O)N2CCCC2)c1 | 0.847
24 | CC(C)(/C=N/NC(=O)CSCc1ccc(Cl)cc1)CCC#N | 8.92
25 | COc1ccc(-n2c3c(cc(C(=O)N4CCN(CCO)CC4)c2=O)C(=O)CC(C)(C)C3)cc1 | -2.36
26 | CSc1ccccc1NC(=O)c1ccc(N2CC3CC(C2)c2cccc(=O)n2C3)c(NC(=O)c2cccnc2)c1 (stereo not shown) | 8.01
27 | CCC1S/C(=N/N=C/c2ccco2)N(Cc2ccccc2C)C1=O (stereo not shown) | 8.54
28 | COc1cccc2c1Oc1ncccc1N(C(=O)CCC(=O)NCc1ccc(C)cc1)C2 | 9.31
29 | Cc1nnc(NC(=O)C2CC(=O)N(c3ccccc3)C2)s1 (stereo not shown) | 6.15
30 | COc1ccc(S(=O)(=O)Nc2cc3c4c(oc3c3ccccc23)CC(C)(C)CC4=O)cc1 | 1.84
31 | Cc1cc(C)n2nc(C(=O)N/N=C/c3ccc(Cl)cc3)nc2n1 | 1.32
32 | CC1=NN(/C(=N\c2nnc(C)s2)Nc2ccc(C(C)(C)C)cc2)[C@H](c2ccc(C)cc2)S1 | 5.66
33 | CC1C(=O)Nc2ccc(S(=O)(=O)N3CCN(c4cccc(C(F)(F)F)c4)CC3)cc2NC1=O (stereo not shown) | 10.5
34 | CCOc1ccccc1NC(=O)c1sc2ncn(CC(=O)N3CCOCC3)c(=O)c2c1C | 6.87
35 | CC(C)Cc1nnc(NC(=O)CN2C(=O)c3ccccc3C2=O)s1 | 14.7
36 | CCOC(=O)C1=C(C)N(C)C(=O)NC1c1c(C)nn(-c2ccccc2)c1C (stereo not shown) | 15.7
37 | O=C(C(=O)c1cccnc1)c1cccnc1 | 16.6
38 | Cc1ccc(SCCC(=O)NCc2ccccn2)cc1 | -9.13
39 | Cc1ccccc1NC(=O)c1sc(NC(=O)C2CC2)nc1C | 10
40 | CCCN1C(=O)c2ccc(C(=O)Nc3ccccc3C(=O)O)cc2C1=O | 18
41 | COc1ccc(-c2n[nH]c3c2C(c2ccc(OC)c(OC)c2)N(c2ccccc2)C3=O)cc1 (stereo not shown) | 11.2
42 | Cc1cc(C(=O)Nc2ccc(C)c(S(=O)(=O)N3CCOCC3)c2)c2ccccc2n1 | 3.69
43 | NS(=O)(=O)c1cc(C(=O)OCC(=O)c2ccc3c(c2)OCCO3)ccc1Cl | 7.09
44 | O=c1c(-c2ccnn2-c2cccc(Cl)c2)cnc2n1CCS2 | 14.2

Row | Structure (SMILES) | hERG current change (%, negative = inhibition) at 1uM [%]
45 | CCCCCOc1ccc(/C=C/c2c([N+](=O)[O-])c(=O)n(C)c(=O)n2C)cc1 | 12.2
46 | COC(=O)c1ccc(Oc2c(C(F)(F)F)oc3c(CN4CCN(C)CC4)c(O)ccc3c2=O)cc1 | 9.42
47 | COc1ccc(Br)cc1CNC(=O)C1CCCN(S(=O)(=O)N2CC(C)CC(C)C2)C1 (stereo not shown) | 7.69
48 | C/C(Cc1ccccc1)=N\NC(=O)CNC(=O)c1ccc(F)cc1 | 16.9
49 | CCOC(=O)/C=C1\SCC(=O)N1CC(=O)Nc1ccc(OC)c(OC)c1 | 12.2
50 | Cn1c(CO)cnc1S(=O)(=O)Cc1ccc([N+](=O)[O-])cc1 | 13.6
51 | CCSCCOC(=O)C1=C(C)N(C)C(=O)NC1c1ccc2c(c1)OCO2 (stereo not shown) | 15.6
52 | CC(=O)c1cccc(N(CC(=O)NC2CCCCC2)C(=O)CCC(=O)Nc2nc(C)cs2)c1 | 8.78
53 | CCOC(=O)c1oc2ccccc2c1NC(=O)c1ccccc1OC | 10.5
54 | CN(Cc1nc2ccccc2n1C)C(=O)c1cccs1 | 0.752
55 | O=C(COc1ncnc2sccc12)Nc1cccc(S(=O)(=O)N2CCOCC2)c1 | 9.04
56 | COc1ccc(OC)c(NC(=O)CC(NC(C)=O)c2ccccc2)c1 (stereo not shown) | 10.1
57 | COc1ccccc1OCCCCN1CCN(C(c2ccccc2)c2ccccc2)CC1.O=C(O)C(=O)O | -24.9
58 | COc1ccccc1C(=O)Nc1ccnn1C1CCN(C(=O)C(C)(C)C)CC1 | -6.95
59 | CC(=O)OC[C@H]1O[C@@H](Sc2cccc3cccnc23)[C@H](OC(C)=O)[C@@H](OC(C)=O)[C@H]1OC(C)=O | 5.33
60 | O=C(O)CCSc1nc2ccccc2s1 | 7.31
61 | CN(Cc1ccccc1)C(=O)CC(=O)N(C)Cc1ccccc1 | 16.9
62 | Cc1ccc(S(=O)(=O)N2CCN(C(=O)CSc3nc4ccccc4c(=O)[nH]3)CC2)cc1 | 3.53
63 | Cc1ccc2cc(NC(=O)c3ccccc3C)ccc2n1 | 14.2
64 | CNC(=O)/C(C#N)=C\c1ccc(CNS(=O)(=O)c2ccccc2)o1 | 4.81
65 | Cc1ccc(-c2csc3ncnc(NCCN4CCOCC4)c23)cc1 | 7.19
66 | CC(C)NCC(O)COc1ccc(COCCOC(C)C)cc1.O=C(O)/C=C/C(=O)O (stereo not shown) | 3.18

Row | Structure (SMILES) | hERG current change (%, negative = inhibition) at 1uM [%]
67 | CC(C)c1ccc(NC2CCCN(C(=O)CCn3cnnn3)C2)cc1 (stereo not shown) | 11.4
68 | CCOC(=O)N1CCC(NC(=O)CS(=O)Cc2nc(-c3ccc(Cl)cc3)oc2C)CC1 (stereo not shown) | 3.06
69 | Cc1ccc(-c2c[n+](Cc3ccc(Cl)cc3)c3n2CCC3)cc1.[Cl-] | 1.55
70 | CN(C(=O)CSc1nnc(-c2ccco2)o1)C1CCCCC1 | 2.27
71 | COc1ccc(N2C(=O)C3[C@@H](C2=O)C2(Cl)C(Cl)=C(Cl)C3(Cl)C2(OC)OC)cc1 (stereo partly shown) | 11.3
72 | COC(=O)c1cccc(NC(=O)CSc2nnc(COc3ccccc3)n2C)c1 | -2.57
73 | O=C(CCCCCNC(=O)N1CCn2c1nc1ccccc12)NCc1ccccc1Cl | 2.45
74 | COc1ccc(OCC(=O)OCC(=O)NCC2CCCCC2)cc1 | 16.2
75 | COC(=O)[C@]1(C)N[C@H](c2ccc(SC3CCCCC3)cc2)[C@@H]2C(=O)N(C)C(=O)[C@@H]21.O=C(O)C(F)(F)F | -0.0645
76 | CCCC[C@@H]1CNCCN1CCc1cccc2ccccc12 | 3.54
77 | CCn1c(SCC(=O)OC(C)C)nnc1-c1ccccc1OC | 1.53
78 | CCCNC(=O)c1ccc(S(N)(=O)=O)cc1 | 10.8
79 | COc1ccc(CCNC(=O)NC23CC4CC(CC(C4)C2)C3)cc1 | 13.9
80 | Cc1cc(C(=O)NC2CCCN(Cc3ccccc3F)C2)no1 (stereo not shown) | 16.9
81 | O=C(CSc1ccc(-c2ccco2)nn1)c1ccc(F)cc1 | -2.59
82 | COC(=O)NC(NC(=S)Nc1cccc(C)c1)C(Cl)(Cl)Cl (stereo not shown) | 7.24
83 | O=C(CSc1nnc(-c2ccncc2)o1)N1CCCC1 | 6.86
84 | CCOc1cccc(N(C(=O)c2ccco2)C(C(=O)NC2CCCC2)c2cccnc2)c1 (stereo not shown) | 11.3
85 | COC(=O)c1sccc1NC(=O)Nc1cccc(C)c1C | 12.9
